Test results: the RNAGym collection of RNA variant scans (doi:10.1093/nar/gkz1192)
Read counts are not given, so values of variants with three or more changes are uncertain.

B1: CPEB3 Ribozyme (parent)
chain: UAACAGGGGGCCACAGCAGAAGCGUUCACGUCGCAGCCCCUGUCAGAUUCUGGUGAAUCUGCGAAUUCUGCUGUAUAUCUC

Variants of: B1
Assay: self-cleavage, relative activity (ratio to wild type); higher = more cleavage; in vitro, sequencing
Procedure, shortened: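 After error-prone PCR and barcoding, CPEB3 ribozyme mutant libraries were transcribed with T7 RNA polymerase at 37°C for 5 hours, then given 15 min with DNase I before an EDTA stop, and they cleaved during both steps. Reverse transcription with template switching preceded Illumina sequencing. Relative activity divides a variant's cleaved/total read fraction by the unmutated ribozyme's. At least 5 reads were required per variant, and three batches were averaged.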

Row | Variant | self-cleavage
1 | G6C U25C A35U U60C | 0.27
2 | G6C U25C U54C U67C G73A | 0.04
3 | G6C U26A U31C A35G A56U | 0.09
4 | G6C U26C A64G | 0.07
5 | G6C U26C U67C U69C U80C | 0.26
6 | G6C U26G U51A | 0.06
7 | G6C U31A A35G U41G U66C U67C | 0.15
8 | G6C U31A U41G U67C | 0.2
9 | G6C U31C A35G U72A A77U U78A | 0.04
10 | G6C U31C A47G | 0.35
11 | G6C U41C A47G U67C U80A | 0.09
12 | G6C U41C A57G C59G A64G | 0.05
13 | G6C U41C U51A U67C | 0.33
14 | G6C U41C U54A | 0.17
15 | G6C U43C A56G | 0.18
16 | G6C U43C A56G A64G U69A G73U | 0.15
17 | G6C U43G U58C A64U U69G U74C | 0.06
18 | G6C U48C U60C U78C | 0.06
19 | G6C U49C U72G | 0.27
20 | G6U A13U A15G A57G | 0.74
21 | G6U A13U A15G U26A C39U | 0.1
22 | G6U A13U A18G A64G | 0.29
23 | G6U A13U A18G U49A | 0.33
24 | G6U A13U A21G | 0.06

Row | Variant | self-cleavage
25 | G6U A13U A21G C40U U48C U67C | 0.06
26 | G6U A13U A28G | 0.12
27 | G6U A13U C23G U54C | 0.09
28 | G6U A13U U26C A56G G63U A64G C81U | 0.07
29 | G6U A15G A18U A28C U80C | 0.07
30 | G6U A15G A18U U25C A47G | 0.04
31 | G6U A15G C17G U76C | 0.09
32 | G6U A15G U26C A57G | 0.14
33 | G6U A15G U43A U48C U51C | 0.11
34 | G6U A15G U54C A57G U58A A65G | 0.7
35 | G6U A15G U60C | 0.39
36 | G6U A15U C62U U72C | 0.05
37 | G6U A15U G63A | 0.12
38 | G6U A15U U26A | 0.09
39 | G6U A15U U41A | 0.3
40 | G6U A18C A21U U51A A64G | 0.05
41 | G6U A18C U41A A65G A77G | 0.16
42 | G6U A18C U51A G52U | 0.23
43 | G6U A18G A20U G33A A47U U78C U80A | 0.05
44 | G6U A18G A28G A57C U78G | 0.08
45 | G6U A18G A35C U41C U60A | 0.33
46 | G6U A18G A35G A45U U60C U80C | 0.08
47 | G6U A18G A35U U48C A64G A75G | 0.05
48 | G6U A18G G52A G63U U66A | 0.06

Row | Variant | self-cleavage
49 | G6U A18G U66C | 0.34
50 | G6U A18U A28G | 0.35
51 | G6U A18U C62A U78C U80C | 0.15
52 | G6U A18U U66C | 0.31
53 | G6U A20C A35U U41A C44U A64G A75U | 0.04
54 | G6U A20C C62A | 0.23
55 | G6U A20G A21U A28G C39U C62U | 0.06
56 | G6U A20G A56U U69A G70A G73A | 0
57 | G6U A20G C23G A28G U58A U69G A77G | 0.02
58 | G6U A20G C29U U41C C68A | 0.25
59 | G6U A20G G24A A47U G52A A77U | 0.05
60 | G6U A20G G30A U31C U72G | 0.05
61 | G6U A20G U26A A45C A56G U69A U72G | 0.05
62 | G6U A20G U41C U72A | 0.07
63 | G6U A20U U26C U51A A56C U67C U80A | 0.22
64 | G6U A20U U69C U80C | 0.37
65 | G6U A21G A35G A45G U54C | 0.22
66 | G6U A21G A35G A45U A64U U66C | 0.19
67 | G6U A21G C29G A56U | 0.14
68 | G6U A21G C34G | 0.4
69 | G6U A21G C40U | 0.07
70 | G6U A21G C44U A57G | 0.15
71 | G6U A21G G24A | 0.29
72 | G6U A21G U25C U26C U72C | 0.09

Row | Variant | self-cleavage
73 | G6U A21G U26C | 0.2
74 | G6U A21G U31C U51C A65G | 0.14
75 | G6U A21G U31C U78C | 0.2
76 | G6U A21U U25C U58G | 0.05
77 | G6U A21U U43C G55A U78A | 0.07
78 | G6U A28G A35G | 0.27
79 | G6U A28G A45G A56C U58A U69C G73A | 0.02
80 | G6U A28G A45G A56C U69C G73A | 0.18
81 | G6U A28G C38U U67A | 0.06
82 | G6U A28G G52U A57G A65G | 0.04
83 | G6U A28U U54A C68A U76A U80C | 0.05
84 | G6U A35C A47G U51C | 0.05
85 | G6U A35C A65G U78C | 0.06
86 | G6U A35G A47G U49G | 0.26
87 | G6U A35G A57G U58A U72A | 0.21
88 | G6U A35G U54A U80C | 0.63
89 | G6U A45G A47G U66C | 0.09
90 | G6U A45G U51A U69C U72A U78C | 0.08
91 | G6U A47G C62A | 0.2
92 | G6U A47G G63U C71A | 0.08
93 | G6U A56G A65G A75G A77U | 0.08
94 | G6U A56G U76C A77G | 0.17
95 | G6U A57G U60C | 0.1
96 | G6U A64G U67A U72C | 0.08

Row | Variant | self-cleavage
97 | G6U C11A A15U G30A U51C A56G A77U | 0.03
98 | G6U C11A U48C A64G U66C U72C U78C | 0.07
99 | G6U C11G U26C U41C U74C | 0.99
100 | G6U C11U U48C U54C | 0.23
101 | G6U C12U A28U U60C | 0.11
102 | G6U C12U A45U U54A A77G | 0.05
103 | G6U C14G U25G G30C U41A U43A | 0.04
104 | G6U C14U A47G U60C U78G | 0.09
105 | G6U C14U U26A A64G U76C | 0.09
106 | G6U C17U A20G U25C U31C A47G | 0.22
107 | G6U C23G A45G U51C A56G | 0.05
108 | G6U C23U U43A | 0.24
109 | G6U C29U U41A U43C U60C | 0.05
110 | G6U C32U A64U U78C | 0.06
111 | G6U C37U A45G | 0.33
112 | G6U C39A U51A C62A A65G | 0.05
113 | G6U G7A A57G U67C A77U | 0.18
114 | G6U G7U A15U A18G A20G G24C G33C | 0.29
115 | G6U G8A A13U | 0.11
116 | G6U G9A G16C C23U U26A A56C U74C | 0.04
117 | G6U G9A G22A U72A | 0.07
118 | G6U G9A U51A A57G A64U A77G | 0.05
119 | G6U G10A A20G A64G | 0.06
120 | G6U G16C U51A U69A U76A | 0.08

Row | Variant | self-cleavage
121 | G6U G16C U72A U74C | 0.66
122 | G6U G24A U41G | 0.5
123 | G6U G30A C38A | 0.07
124 | G6U G33U A47G A57G C62G | 0.06
125 | G6U G42A U54C A77G | 0.07
126 | G6U U25A U72C | 0.25
127 | G6U U25C A35G U48C U54A A56U G63C | 0.07
128 | G6U U25C A45U G46U A65G | 0.05
129 | G6U U25C A65U | 0.11
130 | G6U U25C U41A A56G A57G | 0.09
131 | G6U U25C U60A | 0.17
132 | G6U U25C U69A | 0.19
133 | G6U U26C A28G G33U U48C U72A | 0.06
134 | G6U U26C C29U A45G A47C U48C | 0.16
135 | G6U U26C C29U A45G U60A | 0.19
136 | G6U U26C U43C A45G U58C U60C U72G | 0
137 | G6U U26C U43C U51C A65G | 0.04
138 | G6U U31A A45U U54C U69A U78C | 0.04
139 | G6U U31A A47G U49A A57G | 0.05
140 | G6U U31A A64G | 0.14
141 | G6U U31A U43G U60A A65U U67C U72C | 0.06
142 | G6U U41A A65G | 0.23
143 | G6U U41C A47G A65G | 0.23
144 | G6U U43A U74A | 0.46

Row | Variant | self-cleavage
145 | G6U U43A U74C | 0.49
146 | G6U U43C A45G A64G | 0.04
147 | G6U U43C A47G G61U U66C U78A | 0.03
148 | G6U U43C A57G G73C | 0.34
149 | G6U U43C G52C U54A A56G U60A A75G | 0
150 | G6U U43C U49C A75U | 0.08
151 | G6U U48A U72C | 0.22
152 | G6U U49C A65U A77G | 0.14
153 | G6U U49C U76C | 0.15
154 | G6U U51A A65U C81U | 0.39
155 | G6U U51C U60G C62A U78A | 0.06
156 | G6U U51C U80G | 0.53
157 | G6U U54C A57U U60C U69C | 0.12
158 | G6U U58C U78C | 0.16
159 | G6U U60A U72C | 0.22
160 | G6U U60C U80C | 0.22
161 | G6U U66C U74C A77G | 0.08
162 | G6U U74C A75G | 0.35
163 | G7A A13C G30A C39A U67C U74A | 0.07
164 | G7A A13C U26C | 0.09
165 | G7A A13G A15G U41A A57G | 0.19
166 | G7A A13G A18U A45G U48A U58C | 0.06
167 | G7A A13G A28U U41A G42C A65G U66C | 0.05
